Reference: paper PMC4336329 (PLoS ONE, 2015)
Out of some 310,000 compounds screened, about 2,200 (0.71%) showed an effect of 50% or more. Effects have a minus sign here. The list shows a part of the results.

target: human ether-à-go-go-related gene (hERG) potassium channel (human, UniProt Q12809); assay: primary screen, population patch clamp on CHO cells stably expressing hERG
Sequence (Q12809 whole entry, looked up): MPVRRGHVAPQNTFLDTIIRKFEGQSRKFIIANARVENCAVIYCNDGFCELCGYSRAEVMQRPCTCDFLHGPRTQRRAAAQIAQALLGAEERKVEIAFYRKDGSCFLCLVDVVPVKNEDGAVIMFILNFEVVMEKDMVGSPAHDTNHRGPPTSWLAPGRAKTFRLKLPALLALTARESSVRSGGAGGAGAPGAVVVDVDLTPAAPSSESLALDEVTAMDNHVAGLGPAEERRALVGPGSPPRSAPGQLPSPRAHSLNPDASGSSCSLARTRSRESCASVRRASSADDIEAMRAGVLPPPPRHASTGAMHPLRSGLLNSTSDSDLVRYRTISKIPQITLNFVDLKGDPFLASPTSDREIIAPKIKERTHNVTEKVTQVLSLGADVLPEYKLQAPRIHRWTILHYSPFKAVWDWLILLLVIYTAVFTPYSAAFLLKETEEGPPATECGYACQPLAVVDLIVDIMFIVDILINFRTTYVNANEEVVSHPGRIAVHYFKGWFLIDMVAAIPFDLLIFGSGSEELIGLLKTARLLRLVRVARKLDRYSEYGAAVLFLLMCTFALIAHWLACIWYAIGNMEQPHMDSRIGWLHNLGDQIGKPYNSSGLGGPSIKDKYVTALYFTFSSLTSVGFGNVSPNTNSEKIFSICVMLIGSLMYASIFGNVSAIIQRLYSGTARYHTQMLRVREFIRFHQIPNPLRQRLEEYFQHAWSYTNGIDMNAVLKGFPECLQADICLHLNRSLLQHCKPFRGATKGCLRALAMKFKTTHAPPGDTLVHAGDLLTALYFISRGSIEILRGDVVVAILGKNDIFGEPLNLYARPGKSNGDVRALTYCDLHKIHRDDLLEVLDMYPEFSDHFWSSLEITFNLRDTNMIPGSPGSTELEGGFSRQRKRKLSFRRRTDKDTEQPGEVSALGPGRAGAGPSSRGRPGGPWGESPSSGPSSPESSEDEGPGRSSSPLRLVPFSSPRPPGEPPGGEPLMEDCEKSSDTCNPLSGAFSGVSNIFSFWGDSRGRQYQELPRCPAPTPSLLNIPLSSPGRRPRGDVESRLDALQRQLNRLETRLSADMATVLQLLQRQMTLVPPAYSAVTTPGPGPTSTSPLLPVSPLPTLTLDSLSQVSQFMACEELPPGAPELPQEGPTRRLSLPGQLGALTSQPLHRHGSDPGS

| Structure (SMILES) | hERG current change (%, negative = inhibition) at 1uM [%] |
| --- | --- |
| Cc1cccc(C)c1NC(=O)CSc1nnc(C)c(=O)[nH]1 | 6.55 |
| Cc1ccc(C(c2sc3ncnn3c2O)N2CCCCC2)cc1 (stereo not drawn) | -0.286 |
| Cc1nnc(NC(=O)C(C)Sc2nnc(CNC(=O)c3ccccc3F)n2C)s1 (stereo not drawn) | -0.155 |
| Cc1c(C(=O)N2CCCCC2)c(S(=O)(=O)N(C)Cc2ccco2)c(C)n1C | 1.66 |
| CCCCn1c(-c2cc(Cl)ccc2OC)n[nH]c1=S | 15.3 |
| CCC(C)NC(=O)CSc1ccc(S(=O)(=O)N2CCN(Cc3ccccc3)CC2)cn1 (stereo not drawn) | 3.73 |
| CCOc1ccccc1NC(=O)C1CCN(C(=O)c2cccs2)CC1 | 19.8 |
| O=c1cc[nH]c2ccc(OC(F)(F)F)cc12 | 12.2 |
| Cc1ccc(OC(=O)NC2CCS(=O)(=O)C2)cc1C (stereo not drawn) | 7.27 |
| Cc1ccc(NC(=O)C2C3CCCCC32)cc1[N+](=O)[O-] (stereo not drawn) | 20.1 |
| Cc1ccc(S(=O)(=O)c2nc(S(C)(=O)=O)sc2N2CCC3(CC2)OCCO3)cc1 | -9.73 |
| COc1ccc(CNC(=O)CCn2nc(C)c3c(C)n(-c4ccccc4)nc3c2=O)c(OC)c1 | 15.2 |
| COc1cc(/C=N/N2CCN(Cc3ccccc3)CC2)cc(OC)c1OC(C)=O | 7.04 |
| COc1ccc(C(=O)/C=C/c2ccc(OC)cc2OC)c(O)c1 | 4.49 |
| Cn1c(=O)c2c(ncn2CC(=O)OCC(=O)Nc2cccc(Cl)c2)n(C)c1=O | 3.85 |
| CCOP(=O)(c1c(F)c(F)c(F)c(F)c1F)C(O)c1ccccc1 (stereo not drawn) | 8.88 |
| CCOC(=O)N1CCN(C(=O)c2ccc(N3C(=O)c4ccccc4C3=O)cc2)CC1 | 9.84 |
| CCOC(=O)C1CCN(C(=O)CCc2ccc(S(=O)(=O)NCC(C)C)cc2)CC1 | 15.1 |
| COc1ccc(N2CCN(C(c3cc(OC)ccc3OC)c3nnnn3Cc3ccco3)CC2)cc1.Cl (stereo not drawn) | 6.49 |

| Structure (SMILES) | hERG current change (%, negative = inhibition) at 1uM [%] |
| --- | --- |
| Cc1cccn2cc(CSc3nnc(Nc4ccc(C(C)C)cc4)s3)nc12 | 10.1 |
| O=[N+]([O-])c1ccc(NC(=S)NCCc2ccccc2)cc1 | 6.9 |
| Cc1ccc(CN2CCC(CNC(=O)Nc3ccccc3F)CC2)cc1 | -27.6 |
| O=C(CSc1nnc(-c2ccco2)n1-c1ccccc1)N1CCOCC1 | 11.3 |
| CCOC(=O)COn1c(=O)c(-c2ccc(Br)cc2)[n+]([O-])c2ccccc21 | 11.7 |
| O=C(O)c1ccc(-c2nc(-c3ccc(Cl)c(Cl)c3)cs2)cc1 | -6.63 |
| CCN(CCO)c1ccc(N=Nc2cc(C)[nH]n2)cc1 | 14.7 |
| COc1ccc(C)cc1NC(=O)NC1CCCCCCC1 | 16.3 |
| CCOc1cc(-c2nnc(NC(=O)C3=COCCO3)o2)cc(OCC)c1OCC | 2.83 |
| COc1ccc(NC(=O)CN(C)S(=O)(=O)c2ccccc2)cc1 | 4.1 |
| CCC1CCCCN1CCCNC(=O)C1CCC(CNS(=O)(=O)c2c(C)cc(C)cc2C)CC1 (stereo not drawn) | -3.19 |
| CN(Cc1cccc(Cl)c1)C(=O)C1CCC(=O)N(C2CC2)C1 (stereo not drawn) | 22.3 |
| C=CCOc1ccc(-c2nc3c(c(=O)[nH]c(=O)n3CCCC)n2C)cc1OC | 21.5 |
| CC(C)(C#N)N([O-])C=C[N+](=O)C(C)(C)C#N | 10.3 |
| COc1ccc(Cl)cc1S(=O)(=O)N1CCC(C(=O)NCCc2ccccc2)CC1 | 11.3 |
| CCc1nc2sc3c(c2c(=O)o1)CCCC3 | 22.3 |
| Cc1ccc(S(=O)(=O)NCC(=O)OC(C)C(=O)Nc2ncc(Cl)cc2Cl)cc1 (stereo not drawn) | -4.54 |
| Cc1nc2c(sc3nc4c(cc32)COC(C)(C)C4)c(=O)n1Cc1ccccc1 | 3.2 |
| O=C(NC1CC1)C1CSC(c2cccnc2)=N1 (stereo not drawn) | -8.47 |

| Structure (SMILES) | hERG current change (%, negative = inhibition) at 1uM [%] |
| --- | --- |
| CC(C)Oc1ccc(/C(O)=C2/C(=O)C(=O)N(CCN(C)C)C2c2ccco2)cc1 (stereo not drawn) | 12.6 |
| Cc1c(Cl)cccc1NC(=O)CNC(=O)c1ccccc1F | -0.639 |
| O=C(COC(=O)c1ncc(Cl)c(Cl)c1Cl)NCCc1ccccc1 | 13.7 |
| Cc1sc2ncn(CC(=O)NCCCOC(C)C)c(=O)c2c1S(=O)(=O)N1CCN(c2ncccn2)CC1 | 9.15 |
| COc1ccc(C(=O)N/N=C(\C)c2cccc(NC(=O)c3ccc(F)cc3)c2)c(OC)c1 | -2.24 |
| COc1ccccc1CNC(=O)[C@@H](NC(=O)C1CCN(C(=O)[C@@H]2CCCN2C(=O)OC(C)(C)C)CC1)C(C)C | 13 |
| O=C(NCCC1=CCCCC1)Nc1ccc2nsnc2c1 | 4.7 |
| COc1ccc2c(-c3ccccc3)cc(=S)[nH]c2c1 | 12 |
| CCNC(=S)NNC(=O)CSc1nc2ccccc2[nH]1 | 12.6 |
| O=C(NCCCN1CCOCC1)c1cc(Cl)ccc1Cl | 9.18 |
| CCn1c(SCC(=O)Nc2ccc(S(N)(=O)=O)cc2)nnc1-c1cccc(OC)c1 | 4.73 |
| C/C(=N/NC(=O)c1ccc(Br)o1)c1ccncc1 | 17.9 |
| Cc1cccc(NC(=O)C2CCCN2C(=O)OCC(C)C)c1C (stereo not drawn) | 9.95 |
| COc1cc(NC(=O)COC(=O)[C@@H]2CCCN2S(=O)(=O)c2ccc(Cl)cc2)cc(OC)c1OC | 7.26 |
| CCOC(=O)N1CCN(C(=O)COc2ccc(Cl)cc2C)CC1 | 4.04 |
| O=C(Cc1ccccc1)Nn1c(O)c(/C=C2\C=Nc3ccccc32)sc1=S | 7.77 |
| CCN1CCN(CC(=O)c2ccc(C)cc2)CC1 | 14.6 |
| CCCCCCn1c(SCCOC)nc2c1c(=O)[nH]c(=O)n2C | -21.6 |
| CC(C)OC(=O)C1=C(N)N2C(=O)CSC2=C(C(=O)OC(C)C)C1 | 1.7 |
